Some of the results follow.
Tests used:
HSkMC = human skeletal muscle cells; experiment: cytotoxicity call (relative viability < 0.9); details: 10 µM
HepG2 = experiment: cytotoxicity call (relative viability < 0.9); details: 10 µM
S. aureus RN4220 = experiment: growth inhibition call (relative growth <= 0.2); details: 50 µM

SMILES	cytotoxicity call (HSkMC)	cytotoxicity call (HepG2)	growth inhibition call (S. aureus RN4220)
C=CC[C@@H](CC(=O)N[C@H](CO)Cc1ccccc1)C(=O)NC[C@H](OC(=O)[C@@H](CC=C)Cc1ccc(F)cc1)c1ccccc1	active	active	inactive
C[C@H](CO)N1C[C@H](C)[C@@H](CN(C)Cc2ccc(C(F)(F)F)cc2)OCc2ccccc2-c2c(n(C)c3ccccc23)C1=O	inactive	inactive	inactive
COC(=O)C[C@H]1CC[C@H](N)[C@@H](CO)O1	inactive	inactive	inactive
CNC(=O)Cn1cc2c(n1)CC[C@H](C)C2	inactive	inactive	inactive
O=C(C[C@H]1CC[C@@H]2[C@H](COC[C@H](O)CN2C(=O)c2ccccc2)O1)N1CCOCC1	inactive	inactive	inactive
CN1C(=O)c2cc(NC(=O)C3CCCC3)ccc2OC[C@H]2O[C@H](CC(=O)NCCc3ccncc3)CC[C@H]21	inactive	inactive	inactive
COc1ccc2c3c(n(c2c1)C)[C@H](CO)N(C[C@]13CN(Cc2cccnc2)C1)S(=O)(=O)c1ccc(cc1)C	inactive	inactive	inactive
COc1ccc(S(=O)(=O)N(C)C[C@H]2Oc3ncc(C#CC4(O)CCCC4)cc3C(=O)N([C@@H](C)CO)C[C@@H]2C)cc1	inactive	inactive	inactive
Cc1noc(C)c1S(=O)(=O)N(C)C[C@H]1Oc2ccc(NS(=O)(=O)c3ccccc3)cc2CC(=O)N([C@@H](C)CO)C[C@H]1C	inactive	inactive	inactive
COc1ccc(NC(=O)Nc2ccc3c(c2)C(=O)N([C@@H](C)CO)C[C@@H](C)[C@H](CN(C)S(=O)(=O)c2c(C)noc2C)OCCCC[C@@H](C)O3)cc1	inactive	inactive	inactive
CC(C)CC#Cc1ccc2c(c1)O[C@H](CN(C)C(=O)C1CCOCC1)[C@@H](C)CN([C@@H](C)CO)S2(=O)=O	inactive	inactive	inactive
C[C@@H]1CN([C@@H](C)CO)C(=O)c2cc(NS(=O)(=O)c3cccs3)ccc2O[C@H]1CN(C)Cc1ccncc1	inactive	inactive	inactive
C[C@H](CO)N1C[C@H](C)[C@H](CN(C)CC2CCCCC2)OCCCC[C@H](C)Oc2ccc(NS(=O)(=O)c3ccc(F)cc3)cc2C1=O	inactive	active	inactive
COc1ccc2c3c([nH]c2c1)[C@@H](CO)N(C[C@]13CCN(CC1)CC1CCCC1)C(=O)CN1CCOCC1	inactive	inactive	inactive
C[C@@H]1CN([C@H](C)CO)C(=O)c2cc(NC(=O)Cn3cnnn3)ccc2O[C@H]1CN(C)C(=O)NC1CCCCC1	inactive	inactive	inactive
Cc1noc(C)c1S(=O)(=O)N(C)C[C@H]1Oc2ccc(NC(=O)Nc3ccc4c(c3)OCO4)cc2CC(=O)N([C@H](C)CO)C[C@H]1C	inactive	inactive	inactive
CC(C)(C)[S@@](=O)N1Cc2cc(C(=O)N3CCc4ccccc4C3)nc(-c3cccc(-c4ccncc4)c3)c2[C@H]1CCO	inactive	inactive	inactive
C[C@@H]1CN([C@@H](C)CO)C(=O)c2cc(NS(=O)(=O)c3ccccc3)ccc2O[C@@H](C)CCCCO[C@@H]1CN(C)C(=O)CCC(F)(F)F	inactive	inactive	inactive
COc1ccc([C@@H]([C@H](Cc2ccccc2)OC(C)=O)N2C[C@@H](CC(=O)N(C)C)[C@H]3[C@@H]([C@@H]2Cc2ccccc2)N(C)O[C@@H]3c2ccccc2)cc1	inactive	active	inactive
C[C@@H]1CN([C@@H](C)CO)C(=O)Cc2cc(NS(=O)(=O)c3ccc(Cl)cc3)ccc2O[C@H]1CN(C)Cc1ccc(Oc2ccccc2)cc1	active	active	inactive
COc1ccc(NC(=O)N2C[C@H](O)COC[C@H]3O[C@H](CC(=O)NCc4ccccc4OC)CC[C@@H]32)cc1	inactive	inactive	inactive
Cc1noc(C)c1NC(=O)Nc1ccc2c(c1)C(=O)N([C@H](C)CO)C[C@H](C)[C@H](CN(C)Cc1ccccc1)OCCCC[C@@H](C)O2	inactive	inactive	inactive
CCCNC(=O)N[C@H]1CC[C@@H](CC(=O)N2CCN(C)CC2)O[C@H]1CO	inactive	inactive	inactive
COC(=O)c1c(CC[C@@H](CO)NC(=O)N[C@@H](Cc2ccccc2)Cn2cc(C3(O)CCCC3)nn2)oc(C(=O)N2CCOCC2)c1C(=O)OC	inactive	inactive	inactive
Cc1noc(C)c1NC(=O)Nc1ccc2c(c1)C(=O)N([C@H](C)CO)C[C@H](C)[C@@H](CN(C)S(=O)(=O)c1ccccc1)OCCCC[C@H](C)O2	inactive	inactive	inactive
